# Laboratory results published in PubChem BioAssay AID1454 (National Center for Advancing Translational Sciences (NCATS), 2008).
# The campaign covered roughly 130,000 compounds. About 550 (0.42%) were called active. This list was built around the results that the source calls inconclusive (neither active nor inactive); the mix of calls is not that of the screen. The call rests on the fitted dose curve; in most records, active means well fitted inhibition curve with a large enough effect; inconclusive means small, poorly fitted or top-dose-only effect, or effect the other way; inactive means flat fitted curve, though single readings scatter. Potencies of inconclusive entries are left out as doubtful fits.
# Experiment: qHTS Assay for Inhibitors of the ERK Signaling Pathway using a Homogeneous Screening Assay; Stimulation with EGF; further: nearly all actives have a fitted effect of over 55% in size;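 on activity change, negative = inhibition: plate controls were stimulated vehicle wells for no effect and unstimulated vehicle basal for full effect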
# Settings: HEK293-V1b, EGF-stimulated phospho-ERK AlphaScreen; activity change, negative = inhibition: at the top concentration
# In short: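 Homogeneous cell-based phospho-ERK assay: HEK293/V1b cells in 1% FBS, compound 30 min then EGF 5 min, AlphaScreen luminescence. Activity normalized between DMSO and 25 nM EGF controls; AC50 from Hill modelling.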
# Potency means the concentration at half of the fitted maximal effect; tags describe the fitted curve by direction and shape.
Compound,Potency,"activity change, negative = inhibition"
CC1(C)CC(=NOC(=O)c2ccccc2)CC(C)(C)N1,"inconclusive [inhibitor, single point]",–
CCCCCCCCCCCCCCCC(=O)OC(CO)CO,"inconclusive [inhibitor, single point]",–
CC/C(=N\Nc1ccccc1[N+](=O)[O-])c1ccc(O)cc1,"inconclusive [inhibitor, partial curve]",–
CN(C)Cc1ccccc1-c1ccc2ncnc(NC3CCNCC3)c2c1,–,inactive: 23.4%
Cc1c(-c2ccccc2)oc2cc(O)ccc2c1=O,–,inactive: 7.54%
O=C(COC(=O)CC1CC2CCC1C2)Nc1cccc(S(=O)(=O)NC2=NCCCCC2)c1 (stereo unspecified),–,inactive: 2.56%
CN1/C(=C\C(=O)c2cccc(S(=O)(=O)N3CCCCC3)c2)C(C)(C)c2ccccc21,"inconclusive [activator, partial curve]",–
COc1cccc(-c2nc(NCCc3c[nH]c4ccc(OC)cc34)c3ccccc3n2)c1,active: 25.1 µM,–
CCn1c(SCC(=O)N/N=C(\C)c2ccncc2)nnc1-c1ccccc1,"inconclusive [inhibitor, single point]",–
CC(=O)OC1CCC2(C)C3CCC4(C)C(CC5CCCCC54C(C)=O)C3CC(=O)[C@@]2(O)C1 (stereo partly specified),–,inactive: 2.03%
COC(=O)c1ccc(C(NC(=O)OCc2ccccc2)/C(=C/[C@@H](C)C(=O)N(C)Cc2ccccc2)c2cccnc2)cc1 (stereo partly specified),"inconclusive [inhibitor, partial curve]",–
COc1ccc(-c2csc(NC(=O)CCS(=O)(=O)c3ccccc3)n2)c(OC)c1,"inconclusive [inhibitor, single point]",–
Cc1cc(C)nc(NCCO)n1,"inconclusive [activator, partial curve, poor fit]",–
COc1ccc(CN2CCN(Cc3cn(C)nc3-c3ccccc3)CC2CCO)c(C)c1C (stereo unspecified),"inconclusive [activator, full curve, poor fit]",–
COc1cc(/C=C2\SC(=S)N(NS(=O)(=O)c3ccccc3)C2=O)ccc1O,"inconclusive [inhibitor, single point]",–
CCCCCC(=O)N1CC2(CC(c3cccc(NC(=O)COc4ccc(Cl)cc4)c3)=NO2)C[C@@H]1C(N)=O (stereo partly specified),"inconclusive [inhibitor, single point]",–
COc1ccc(CCNC(=O)COc2ccc(C)nc2[N+](=O)[O-])cc1,–,inactive: -5.99%
CN(C)c1ccc(-c2nc(Nc3ccncc3)c3ccccc3n2)cc1,"inconclusive [inhibitor, single point]",–
CCOC(=O)C1CCCN(Cc2c(C(=O)N3CCCCC3)nc3c(C)cccn23)C1 (stereo unspecified),"inconclusive [inhibitor, single point]",–
COc1ccc2nc3cc(Cl)ccc3c(Nc3cc(C(C)C)c(O)cc3C)c2c1,active: 17.8 µM,–
Cc1cc(Br)ccc1-n1[nH]c(C)c(C=Nc2cccc3nsnc23)c1=O,"inconclusive [inhibitor, single point]",–

Compound,Potency,"activity change, negative = inhibition"
COc1ccccc1NS(=O)(=O)c1cc(NC(=O)Nc2ccc(Cl)cc2Cl)ccc1N1CCCCC1,–,inactive: -4.54%
CC1=C/C(=N\OS(=O)(=O)c2ccccc2)C=CC1=O,"inconclusive [inhibitor, single point]",–
O=C(N/C(=C\c1ccc(-c2ccccc2)o1)C(=O)N1CCOCC1)c1ccccc1,"inconclusive [inhibitor, single point]",–
CC1CCN(CC(CS(=O)(=O)c2ccc([N+](=O)[O-])cc2)N2CCC(C)CC2)CC1 (stereo unspecified),"inconclusive [inhibitor, single point]",–
CCOc1ccc2nc(NC(=O)Nc3cccs3)sc2c1,"inconclusive [inhibitor, single point]",–
CCCCCC(=O)/C=C/[C@H]1[C@H](O)CC(=O)[C@@H]1C/C=C\CCCC(=O)O,–,inactive: -2.37%
CN(C)c1ccc(C(=O)Nc2nc3c(s2)CCCC3)cc1,active: 22.4 µM,–
Cc1cc(/C=C2\SC(=S)NC2=O)c(C)n1-c1ccccc1,"inconclusive [inhibitor, partial curve, poor fit]",–
COCCNc1nnnc2c1sc1nc(N3CCOCC3)c3c(c12)CCCC3,"inconclusive [inhibitor, partial curve]",–
CCOc1ccc(CN(C)C(C)C(=O)Nc2ccc([N+](=O)[O-])cc2Cl)cc1OC (stereo unspecified),"inconclusive [inhibitor, partial curve]",–
CN1c2cc3c(cc2N=C(c2ccc(C(=O)O)cc2)c2ccccc21)C(C)(C)CCC3(C)C,"inconclusive [inhibitor, single point]",–
Cc1ccc(S(=O)(=O)N2CCCCC2)cc1NC(=S)NC(=O)c1ccco1,"inconclusive [inhibitor, single point]",–
CCC/C=C(\CCC)C(NC(=O)c1cccs1)c1ccc(C(F)(F)F)cc1 (stereo unspecified),–,inactive: -0.392%
COc1ccc(/C(C)=N/Nc2nc3ccccc3nc2C)cc1,"inconclusive [inhibitor, single point]",–
COC1OC(CO)C(OC2OC(C(=O)O)C(OC3OC(COS(=O)(=O)O)C(OC4OC(C(=O)O)C(OC5OC(CO)C(OC6OC(C(=O)O)C(OC7OC(COS(=O)(=O)O)C(OC8OC(C(=O)O)=C[C@H](O)C8OS(=O)(=O)O)C(O)C7NC(C)=O)[C@@H](O)C6O)C(O)C5NC(C)=O)[C@@H](O)C4O)C(O)C3NC(C)=O)[C@@H](O)C2O)C(O)C1NC(C)=O (stereo partly specified),–,inactive: 26.2%
CCC1(C)N=C(N)Nc2nc3cc(C)c(C)cc3n21 (stereo unspecified),"inconclusive [inhibitor, single point]",–
CC(=O)[C@]1(O)CCC2C3CC(C)C4=CC(=O)C=CC4(C)[C@@]3(F)C(O)C[C@]21C (stereo partly specified),–,inactive: -2.91%
O=C(Nc1ccc([N+](=O)[O-])cc1)Nc1nc(-c2ccc(Cl)s2)cs1,–,inactive: 5.19%
COc1cccc(/C=N/NC(=O)C[n+]2ccccc2)c1O,–,inactive: -2.71%
COc1cccc(Cn2c(=O)c(-c3cccs3)nc3cnc(N4CCN(C)CC4)nc32)c1,"inconclusive [activator, partial curve, poor fit]",–
